Data as given in PubChem BioAssay AID2147 (National Center for Advancing Translational Sciences (NCATS), 2009).
Values joined by “and” are separate entries in the source; they are usually repeats but may differ in a detail not shown here. Identical values can stand only once. Screen size: about 230,000 compounds; about 3,600 (1.6%) were called active. The inconclusive results got no clear call from the source; some entries with a clear call stand among them for comparison. Calls follow the shape of the dose curve; as a rule, active = well fitted inhibition curve with a large enough effect (not every such curve was filed as active); inconclusive = small, poorly fitted or top-dose-only effect, or another doubt; inactive = no such curve, though single readings can be large or run the other way. Potencies of inconclusive entries are doubtful fits and often do not repeat.

target: Lysine-specific demethylase 4E (Homo sapiens) (UniProt B2RXH2); experiment: qHTS Assay for Inhibitors of Human Jumonji Domain Containing 2E (JMJD2E); conditions: JMJD2E catalytic domain, FDH-coupled NADH fluorescence (FDH is formaldehyde dehydrogenase); series mostly up to 57.1 µM; activity change, negative = inhibition: at the top concentration
UniProt B2RXH2, sequence (B2RXH2 whole entry, looked up, the tested form may be a part): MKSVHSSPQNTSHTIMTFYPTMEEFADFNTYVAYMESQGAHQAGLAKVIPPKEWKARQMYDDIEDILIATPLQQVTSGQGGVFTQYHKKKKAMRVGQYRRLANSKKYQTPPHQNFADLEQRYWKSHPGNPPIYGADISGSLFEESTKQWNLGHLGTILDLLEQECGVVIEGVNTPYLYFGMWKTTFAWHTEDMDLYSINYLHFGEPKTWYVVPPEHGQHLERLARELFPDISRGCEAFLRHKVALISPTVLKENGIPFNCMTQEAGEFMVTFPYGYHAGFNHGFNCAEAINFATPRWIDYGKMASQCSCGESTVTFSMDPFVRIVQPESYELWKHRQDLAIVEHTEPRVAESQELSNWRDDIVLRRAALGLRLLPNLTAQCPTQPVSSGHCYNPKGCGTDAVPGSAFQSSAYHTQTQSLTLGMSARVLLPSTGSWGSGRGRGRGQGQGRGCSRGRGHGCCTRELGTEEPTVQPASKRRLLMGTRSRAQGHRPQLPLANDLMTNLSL
Also: nearly all actives have a fitted effect of over 50% in size.
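For activity change, negative = inhibition in this document: 0% = wells with enzyme and -100% = buffer wells without enzyme.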
Potency is read from the fitted curve at half-maximal effect; tags tell the direction and shape of the fitted curve.

SMILES | Potency | activity change, negative = inhibition
CCN(CC)CCNC(=O)Cn1c(-c2ccccn2)nc2ccccc21 | inconclusive: 28.2 µM [inhibitor, partial curve] | 
O=C(Nc1cccc(/C=C/c2nc3ccccc3c(=O)[nH]2)c1)c1ccccc1Cl | inconclusive: 20 µM [inhibitor, partial curve] | 
CC1CCC(NC(=O)Cn2c3c(c(-c4ccccc4Cl)cc2=O)CCC3)CC1 (stereo not given) | inconclusive: 28.2 µM [inhibitor, partial curve] | 
c1nc(NCCN2CCOCC2)c2sc3nc(N4CCOCC4)c4c(c3c2n1)CCC4 | inconclusive: 31.6 µM [inhibitor, partial curve] | 
CN(C)Cc1ccccc1-c1cc(-n2ccnc2)ncn1 | inconclusive: 31.6 µM [inhibitor, single point] | 
O=C(NNC(=O)c1sc2cccc(Cl)c2c1Cl)NC1CCCCC1 |  | inactive: -16.7%
O=C(N/N=C/c1ccccn1)c1ccc([N+](=O)[O-])cc1 | inconclusive: 25.1 µM [inhibitor, partial curve] | 
CC(CCc1ccc(O)cc1)N(C)CCc1ccccc1 (stereo not given) | inconclusive: 25.1 µM [inhibitor, single point] | 
Fc1nc(N2CCCC2)c(F)c(Oc2ccccc2Oc2c(F)c(F)nc(N3CCCC3)c2F)c1F | inconclusive: 22.4 µM [inhibitor, single point] | 
O=C1OC(c2ccc(F)cc2)=C/C1=C\c1ccc([N+](=O)[O-])o1 | inconclusive: 22.4 µM [inhibitor, single point] | 
Cc1c(OCc2nn[nH]n2)ccc2c3c(c(=O)oc12)CCC(C)C3 (stereo not given) | inconclusive: 28.2 µM [inhibitor, partial curve] | 
Cc1c(C#N)c(N=CN(C)C)c(C(=O)c2ccc(Br)cc2)n1-c1ccccc1 |  | inactive: 6.02%
O=c1c(Cc2ccccc2)c(O)c2cccc3c4c(n1c23)CCCC4 | inconclusive: 15.8 µM [inhibitor, partial curve] | 
O=C(O)C1CCC(NSc2ccccc2[N+](=O)[O-])CC1 (stereo not given) |  | inactive: -8.35%
COc1cc(O)oc1C=Nc1ccc(C(=O)O)cc1 | inconclusive: 28.2 µM [inhibitor, partial curve] | 
CN(Cc1ncc[nH]1)Cc1cn(-c2ccccc2)nc1-c1ccc2c(c1)OCO2 | inconclusive: 39.8 µM [inhibitor, single point] | 
COC(=O)c1ccc(N2Cc3ccccc3/C2=N\C(=O)Nc2ccccc2)cc1 | inconclusive: 17.8 µM [inhibitor, partial curve] | 
COc1cc(NC(=O)c2cc3ccccc3o2)c(OC)cc1Br | inconclusive: 28.2 µM [inhibitor, partial curve] | 
COc1cc2c(cc1NC(=O)COC(=O)[C@@H](NC(=O)c1ccccc1F)C(C)C)oc1ccccc12 | inconclusive: 35.5 µM [inhibitor, single point] | 
CC(=O)[C@]1(O)CCC2C3C=C(Cl)C4=CC(=O)C5CC5[C@@]4(C)C3CC[C@]21C (stereo not given in full) |  | inactive: -5.01%
CC(=O)N(CC1CCCO1)c1nnc(-c2ccccn2)s1 (stereo not given) | inconclusive: 35.5 µM [inhibitor, single point] | 
O=C1C2CC=CCC2C(=O)N1c1cccc(OS(=O)(=O)c2ccc3ccccc3c2)c1 (stereo not given) | inconclusive: 35.5 µM [inhibitor, single point] | 
Cc1nn(-c2ccccc2)c2sc(C(=O)N3CCc4ccccc4C3)cc12 | inconclusive: 39.8 µM [inhibitor, single point] | 
CCN(c1ccccc1)S(=O)(=O)c1ccc2[nH]cc(C(=O)N3CCOCC3)c(=O)c2c1 | inconclusive: 28.2 µM [inhibitor, single point] | 

SMILES | Potency | activity change, negative = inhibition
Cc1nc(NC2CCCCC2)c2nc(-c3ccccc3)n(CCN(C)C)c2n1 | inconclusive: 31.6 µM [inhibitor, partial curve] | 
O=C(Cc1ccc(Cl)cc1)Nc1ccc(NC(=O)c2cccs2)cc1 | inconclusive: 35.5 µM [inhibitor, single point] | 
O=Cc1c(-c2ccccc2)nc2ccccn12 |  | inactive: 3.69%
COc1ccc2nc(NC(=O)CSc3nnnn3C3CCCCC3)sc2c1 |  | inactive: -3.88%
N#Cc1cc2c(=O)n3ccccc3nc2n(CCCN2CCOCC2)c1=O | inconclusive: 28.2 µM [inhibitor, partial curve] | 
O=C1CN(Cc2cc(=O)oc3cc4c(cc23)CCC4)CCN1 | inconclusive: 39.8 µM [inhibitor, single point] | 
CCOC(=O)Nc1cc(=O)c2ccccc2o1 | inconclusive: 35.5 µM [inhibitor, single point] | 
NC1=NC[C@H](CC2CCCCC2)N1CCc1cc(C(F)(F)F)cc(C(F)(F)F)c1 |  | inactive: 1.18%
NNC(=O)c1ncoc1-c1ccc(Cl)cc1 |  | inactive: -3.13%
COc1ccc(O)c(/C=N/Nc2nc(Nc3ccccc3)nc(-n3nc(C)cc3C)n2)c1 | active: 14.1 µM | 
O=c1c2[nH]c3ccc(F)cc3c2ncn1Cc1ccncc1 | inconclusive: 25.1 µM [inhibitor, single point] | 
CCCCCN1CN(S(=O)(=O)c2cccs2)c2nc3ccccc3nc21 | inconclusive: 39.8 µM [inhibitor, single point] | 
O=C(NC(NC(=S)Nc1ccc(Cl)cc1)C(Cl)(Cl)Cl)c1ccco1 (stereo not given) |  | inactive: 14.1%
O=S1(=O)CC(NCc2ccccc2)C(Nc2ccccc2)C1 (stereo not given) |  | inactive: -1.89%
CCSc1oc(-c2ccco2)nc1S(=O)(=O)c1ccc(F)cc1 | inconclusive: 28.2 µM [inhibitor, single point] | 
CN(C)CCN(C(=O)c1cc(Cl)sc1Cl)c1nc2ccc(F)cc2s1 |  | inactive: 5.03%
Cn1c(=O)c2[nH]c(N=Nc3ccc(N)cc3N)nc2n(C)c1=O | inconclusive: 31.6 µM [inhibitor, partial curve] | 
Cc1nc2ccc(S(=O)(=O)Nc3ccc(-c4nc5cccnc5s4)cc3)cc2s1 | inconclusive: 31.6 µM [inhibitor, partial curve] | 
Cc1nc2ncnn2c(C)c1CCC(=O)N1CCN(c2ccccn2)CC1 | inconclusive: 3.98 µM [inhibitor, full curve] | 
Cc1ccnc(SCC(=O)Nc2oc(-c3ccccc3)c(-c3ccccc3)c2C#N)n1 | inconclusive: 25.1 µM [inhibitor, single point] | 
Cc1ccc(-c2noc(CCC(=O)N(C)c3ccccc3C)n2)cc1 |  | inactive: -10.5%
COc1ccccc1NS(=O)(=O)c1cc(NC(=O)c2cc[n+]([O-])cc2)ccc1N1CCCC1 | inconclusive: 22.4 µM [inhibitor, single point] | 
CC(C)=CC(=O)Nc1ccc(Cl)cc1 |  | inactive: 3.66%
CCOC(=O)c1sc(NC(=O)CCC(=O)O)nc1C |  | inactive: -9.55%

SMILES | Potency | activity change, negative = inhibition
Cn1c(C(=O)N2CCOCC2)cnc1Sc1ncc(C(F)(F)F)cc1Cl |  | inactive: 5.17%
NNC(=S)Nc1ccccc1Cl | inconclusive: 31.6 µM [inhibitor, single point] | 
Cc1nc(Nc2ccccc2)c2nc(-c3ccccc3)n(CCN3CCOCC3)c2n1 | inconclusive: 28.2 µM [inhibitor, partial curve] | 
O=C(CCc1ccc(S(=O)(=O)NCc2ccccc2)cc1)NCc1ccco1 |  | inactive: 4.01%
O=C(COC(=O)c1cc(-c2cccs2)nc2ccccc12)NC1CCS(=O)(=O)C1 (stereo not given) | inconclusive: 25.1 µM [inhibitor, partial curve] | 
CCCc1cc(=O)[nH]c(SCc2cc(C(=O)OC)c(C)o2)n1 |  | inactive: 2.57%
O=C(O)c1ccc(N2C(=O)/C(=C\c3ccccc3)N=C2c2ccccc2)cc1 | inconclusive: 22.4 µM [inhibitor, partial curve] | 
Cc1ccc(S(=O)(=O)N/N=C/c2cc(Br)ccc2O)cc1 |  | inactive: 1.63%
Oc1ccccc1/C=N/Nc1nn[nH]n1 | inconclusive: 31.6 µM [inhibitor, single point] | 
Cc1nc2scc(-c3ccccc3)c2c(=O)n1N=C1C=CC(=O)C=C1 |  | inactive: -2.17%
O=C(O)CCc1nn2c3ccccc3n(CC(=O)c3ccccc3)c2nc1=O | inconclusive: 28.2 µM [inhibitor, partial curve] | 
COc1ccc(CC(=O)Nc2ccc(C(=O)Nc3nccs3)cc2)cc1OC | inconclusive: 35.5 µM [inhibitor, single point] | 
O=C(C[n+]1ccc(-c2nnc3n2CCCCC3)cc1)c1ccc(Cl)cc1 | inconclusive: 31.6 µM [inhibitor, partial curve] | 
N#Cc1c(Sc2ncc(C(F)(F)F)cc2Cl)nsc1C/C=N\OCc1c(F)cccc1Cl |  | inactive: -5.61%
COC(=O)c1cn(NC(=O)Cc2ccccc2Br)c(=O)c2ccccc12 |  | inactive: 1.11%
COc1ccc(CCNC(=O)COC(=O)/C=C/c2cc(OC)c(OC)c(OC)c2)cc1OC | inconclusive: 31.6 µM [inhibitor, partial curve] | 
CCCCn1c(N)c(NCC)c(=O)[nH]c1=O | inconclusive: 28.2 µM [inhibitor, partial curve] | 
COC(=O)c1cc(OC)c(OC)cc1NC(=O)C1CCCO1 (stereo not given) | inconclusive: 31.6 µM [inhibitor, partial curve] | 
N#C/C(=C\c1ccncc1)c1nc2ccccc2[nH]1 | inconclusive: 25.1 µM [inhibitor, partial curve] | 
O=C(Cc1cccs1)Nc1nnc(-c2ccc(F)cc2)s1 | inconclusive: 39.8 µM [inhibitor, single point] | 
O=C(O)C1=CC(=C(c2ccc(O)c(C(=O)O)c2)c2ccc(O)c(C(=O)O)c2)C=CC1=O | inconclusive: 28.2 µM [inhibitor, partial curve] and inconclusive: 25.1 µM [inhibitor, partial curve] | 
Cc1ccc(C)n1-c1ccc(-c2nnco2)cc1 | inconclusive: 39.8 µM [inhibitor, single point] | 
